Assay results: the supplement of paper PMC7826260
Some of the results follow. One pool of 16,384 single-stranded DNAs met each Rep nickase domain in vitro (1 h at 37 °C, 3 µM enzyme); the outer parts of the 90-letter strands are left off. Numbers give uncut DNA relative to the enzyme-free pool, as log2; strong cutting gives strongly negative numbers. There is no active / inactive call. Because reads are shares of a total, they shift together; values above 0 arise when much of the pool is cut.

Legend:
Assay in all cases: uncleaved DNA left, log2 of reads against the no-enzyme library (log2 ratio); higher = less cleavage (more negative = more Rep cleavage of the k-mer); sequences stand for … in CTCGTCCG…ACCGGAGA
[1] = tested on: T1, Rep nickase domain of Muscovy duck circovirus
T1 sequence (residues 1-111, tag not shown): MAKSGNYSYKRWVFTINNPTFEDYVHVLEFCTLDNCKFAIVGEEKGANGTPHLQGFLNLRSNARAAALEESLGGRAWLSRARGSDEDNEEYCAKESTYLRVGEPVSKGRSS
Description: (§1)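 A pool of 90-nt single-stranded DNAs with seven random bases just before the constant AC of the nick site (name = the seven bases) was cut by 3 µM recombinant His6-SUMO-tagged Rep nickase domain (300 nM DNA, 50 mM HEPES pH 8.0, 50 mM NaCl, 1 mM MnCl2, 1 h, 37 °C, three replicates). Uncut DNA was amplified and sequenced.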

[2] = tested on: T2, Rep nickase domain of banana bunchy top virus
T2 sequence (residues 1-94, tag not shown): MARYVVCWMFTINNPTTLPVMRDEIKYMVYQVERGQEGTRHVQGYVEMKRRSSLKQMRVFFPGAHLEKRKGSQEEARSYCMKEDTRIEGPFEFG
Description: as §1

[3] = tested on: T3, Rep nickase domain of cabbage leaf curl virus
T3 sequence (residues 1-116, tag not shown): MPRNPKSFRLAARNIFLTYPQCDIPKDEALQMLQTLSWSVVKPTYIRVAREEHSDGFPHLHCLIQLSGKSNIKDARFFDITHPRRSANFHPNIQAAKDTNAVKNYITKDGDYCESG
Description: as §1

[4] = tested on: T4, Rep nickase domain of chickpea chlorotic dwarf virus
T4 sequence (residues 1-124, tag not shown): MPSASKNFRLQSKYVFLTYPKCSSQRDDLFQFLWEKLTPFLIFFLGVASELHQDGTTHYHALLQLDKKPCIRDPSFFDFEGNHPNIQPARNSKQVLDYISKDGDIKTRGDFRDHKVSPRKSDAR
Description: as §1

[5] = tested on: T5, Rep nickase domain of faba bean necrotic yellows virus
T5 sequence (residues 1-98, tag not shown): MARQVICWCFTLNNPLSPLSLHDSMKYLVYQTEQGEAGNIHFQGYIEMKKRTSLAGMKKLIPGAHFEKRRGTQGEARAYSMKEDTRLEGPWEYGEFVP
Description: as §1

[6] = tested on: T6, Rep nickase domain of maize striate mosaic virus
T6 sequence (residues 1-117, tag not shown): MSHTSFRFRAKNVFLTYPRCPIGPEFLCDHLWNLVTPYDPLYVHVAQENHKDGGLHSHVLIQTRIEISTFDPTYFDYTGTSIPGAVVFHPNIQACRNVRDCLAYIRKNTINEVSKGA
Description: as §1

[7] = tested on: T7, Rep nickase domain of porcine circovirus 2
T7 sequence (residues 2-116, tag not shown): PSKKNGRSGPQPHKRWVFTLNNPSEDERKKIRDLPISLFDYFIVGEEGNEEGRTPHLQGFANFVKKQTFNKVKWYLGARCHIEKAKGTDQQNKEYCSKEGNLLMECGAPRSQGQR
Description: as §1

[8] = tested on: T8, Rep nickase domain of tomato golden mosaic virus
T8 sequence (residues 1-124, tag not shown): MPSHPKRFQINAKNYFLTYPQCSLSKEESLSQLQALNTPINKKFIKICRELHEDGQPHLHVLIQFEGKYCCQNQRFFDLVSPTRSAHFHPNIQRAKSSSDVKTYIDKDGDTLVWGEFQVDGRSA
Description: as §1

[9] = tested on: T9, Rep nickase domain of tomato yellow leaf curl virus
T9 sequence (residues 1-136, tag not shown): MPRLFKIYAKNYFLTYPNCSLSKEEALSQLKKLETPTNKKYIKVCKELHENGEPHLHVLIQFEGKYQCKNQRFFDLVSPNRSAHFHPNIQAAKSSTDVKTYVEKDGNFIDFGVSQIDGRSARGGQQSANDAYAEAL
Description: as §1

[10] = tested on: T10, Rep nickase domain of wheat dwarf virus
T10 sequence (residues 1-137, tag not shown): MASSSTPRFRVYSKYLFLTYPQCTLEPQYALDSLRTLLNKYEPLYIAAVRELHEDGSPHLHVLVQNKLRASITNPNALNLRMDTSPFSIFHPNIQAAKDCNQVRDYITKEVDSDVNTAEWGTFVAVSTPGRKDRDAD
Description: as §1

Sequence | uncleaved DNA left (log2) [1] | uncleaved DNA left (log2) [2] | uncleaved DNA left (log2) [3] | uncleaved DNA left (log2) [4] | uncleaved DNA left (log2) [5] | uncleaved DNA left (log2) [6] | uncleaved DNA left (log2) [7] | uncleaved DNA left (log2) [8] | uncleaved DNA left (log2) [9] | uncleaved DNA left (log2) [10]
AACCAGA | -0.0293 | -0.0415 | -0.149 | -0.685 | 0.058 | -0.889 | -0.0879 | 0.116 | 0.0279 | 0.0684
CGTAGTT | 0.0285 | 0.0406 | 0.00468 | -1.09 | -0.0866 | -0.0541 | -0.407 | -0.0189 | 0.00527 | -0.103
ACACCCC | -0.0789 | -0.142 | -0.103 | -0.0347 | -0.00473 | -0.178 | -0.211 | -0.0188 | -0.271 | -0.0658
CCCTGAC | -0.0618 | -0.15 | -0.00712 | -0.361 | 0.129 | -0.441 | -0.0349 | -0.0453 | -0.0867 | -0.128
AAAGTTT | 0.157 | -0.0334 | -2.4 | -2.43 | 0.111 | -0.0741 | -0.944 | -0.181 | 0.0981 | -0.64
CAGGCGG | -0.0509 | 0.0164 | 0.13 | 0.683 | -0.125 | 0.0637 | 0.041 | -0.0304 | -0.0109 | 0.00923
CAGACAC | -0.0362 | 0.137 | 0.199 | 0.557 | -0.000532 | 0.453 | 0.016 | -0.131 | 0.0698 | 0.0949
GCAAAGC | -0.0299 | 0.0822 | -0.12 | 0.0248 | -0.0131 | -0.743 | 0.0801 | 0.0555 | 0.0133 | 0.0508
CCATCTC | -0.0433 | -0.00393 | 0.00294 | -0.168 | -0.0168 | -0.447 | 0.0165 | -0.0483 | 0.0166 | -0.0875
AGGACAC | 0.0962 | 0.194 | 0.902 | 2 | 0.0382 | 2.16 | 0.261 | 0.116 | 0.0981 | 0.207
AATTCTG | -0.117 | -0.0264 | 0.0318 | 0.482 | -0.0644 | 0.543 | -0.00509 | 0.0247 | -0.124 | 0.031
CATATAA | 0.0759 | 0.161 | -0.125 | -0.372 | 0.0306 | -0.773 | 0.162 | 0.0291 | 0.107 | 0.21
ATAGCGC | -0.00124 | -0.0803 | -0.856 | 0.0192 | 0.0851 | -0.842 | -0.088 | -0.0856 | 0.016 | -0.183
CCATCGT | 0.000745 | -0.084 | -0.688 | -0.892 | 0.069 | -1.18 | 0.0382 | -0.0624 | 0.0625 | -0.165
CTCCGCT | -0.116 | -0.131 | -0.202 | -0.724 | -0.231 | -0.68 | -0.102 | -0.0499 | -0.00866 | -0.218
TGCGCAG | 0.0617 | 0.0278 | -0.14 | 0.12 | 0.0885 | 0.25 | 0.21 | 0.0328 | -0.0402 | -0.0449
GTACCGT | -0.00795 | 0.109 | 0.244 | 0.438 | -0.0523 | 0.849 | -0.099 | 0.0373 | 0.0309 | 0.0557
TTCGAGA | 0.251 | 0.173 | 0.956 | 1.41 | 0.166 | 1.67 | 0.317 | 0.221 | 0.128 | 0.257
GGCGCGA | 0.227 | 0.137 | 0.0729 | 0.3 | 0.156 | 0.158 | 0.234 | 0.149 | 0.0966 | -0.0114
TAGGACA | -0.0303 | 0.0969 | 0.493 | 1.03 | -0.101 | 1.29 | 0.0682 | 0.0284 | 0.0513 | 0.176
GACTGAT | -0.306 | -0.194 | -0.0459 | 0.463 | -0.1 | 1.11 | -3.02 | -0.079 | -0.194 | -0.0975
CAAATTA | 0.0852 | -0.0871 | -0.261 | -2.64 | -0.0523 | -0.682 | -0.0341 | 0.122 | -0.0279 | -0.163
AGCCTCC | 0.0887 | 0.00943 | 0.349 | 0.622 | 0.0193 | 1.02 | -0.141 | -0.054 | -0.0631 | 0.0654
GCAAAAC | 0.0279 | 0.0442 | 0.0884 | 0.17 | -0.0204 | -0.45 | 0.202 | 0.156 | 0.0857 | 0.0532
ATTCCTA | -0.142 | -0.0915 | -0.159 | -1.18 | -0.0318 | -0.652 | -1.3 | -0.125 | -0.146 | -0.0346
ACTCTAA | -0.1 | -0.108 | -0.297 | -0.475 | 0.0253 | -0.897 | -0.146 | 0.0915 | -0.176 | -0.114
ATGGTTT | -0.0046 | 0.011 | 0.321 | 1.14 | -0.0693 | 1.54 | -0.106 | 0.112 | -0.0543 | -0.00822
CTAGCAA | -0.148 | 0.132 | -0.135 | -0.275 | -0.0706 | -1.12 | -0.0641 | -0.077 | -0.0381 | 0.035
GCGTCTT | -0.403 | -0.182 | 0.0117 | -0.347 | -0.153 | 0.998 | -2.44 | -0.104 | 0.0254 | -0.00355
AGATTTT | -3.58 | -0.228 | -0.38 | -2.21 | -0.084 | -0.258 | -3.79 | -0.123 | -0.0134 | -0.404
